Assay results taken from PubChem BioAssay AID485344 (National Center for Advancing Translational Sciences (NCATS), 2010).
About 6,900 (2%) of roughly 340,000 compounds were called active. No stated cut-off is given here; in the data, active means inhibition above about 30%; inactive means below that, where a call was filed. This is a selection; strong and weak results do not stand in their true shares. The source gives no active or inactive call for entries shown without one.

Target: D(2) dopamine receptor (Homo sapiens) (UniProt P14416)
UniProt P14416, sequence (P14416 whole entry, looked up): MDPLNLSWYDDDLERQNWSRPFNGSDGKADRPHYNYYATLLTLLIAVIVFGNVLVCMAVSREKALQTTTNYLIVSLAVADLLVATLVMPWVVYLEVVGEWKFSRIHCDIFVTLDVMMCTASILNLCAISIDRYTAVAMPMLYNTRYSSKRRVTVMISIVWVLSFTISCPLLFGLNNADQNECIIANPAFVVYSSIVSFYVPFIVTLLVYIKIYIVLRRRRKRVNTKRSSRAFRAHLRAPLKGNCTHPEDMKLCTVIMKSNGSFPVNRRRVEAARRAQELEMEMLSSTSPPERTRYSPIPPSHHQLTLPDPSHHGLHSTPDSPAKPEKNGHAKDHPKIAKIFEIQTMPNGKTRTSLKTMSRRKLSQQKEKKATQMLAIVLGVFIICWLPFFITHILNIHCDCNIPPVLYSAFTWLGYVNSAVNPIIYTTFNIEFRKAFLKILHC
Assay: HTS Assay for Allosteric Antagonists of the Human D2 Dopamine Receptor: Primary Screen for Antagonists; further: 0% is about no effect
Details: HEK293 TREx D2 cells, calcium flux, dopamine EC80; at 10 µM; stronger effect = higher value
In short: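 Calcium flux kinetic readout in an inducible HEK293 TREx D2 line plated overnight at 30 C. After 180 s compound exposure, an EC80 dopamine challenge follows with another 180 s kinetic read to detect antagonism.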

| Structure (SMILES) | inhibition |
| --- | --- |
| Cc1ccc(-n2nc(C)c3c(C(=O)NCCc4ccc(S(N)(=O)=O)cc4)cc(C)nc32)cc1 | 1.27% |
| O=C(CN1C(=O)c2cccnc2Sc2ccccc21)Nc1cc(F)ccc1F | -2.21% |
| CCC1CN(C(=O)N2CCC(C(=O)NCc3cccc(F)c3)CC2)c2cc(C)ccc2O1 (configuration not stated) | 11.5% |
| COc1cc(OC)c2ccc(=O)oc2c1C(CCN1CCN(c2ccccc2)CC1)c1ccc2c(c1)OCO2 (configuration not stated) | active: 94% |
| COc1ccc(OC)c(CNC(=O)NCc2noc3ccc(C)cc23)c1 | -4.65% |
| CCCOC(=O)c1cccc(NC(=O)COc2ccc([N+](=O)[O-])cc2)c1 | active: 33.3% |
| Cc1cc(Nc2cccc(Cl)c2)nc2ccc(NC(=O)COc3ccc(Cl)cc3)cc12 | -9.57% |
| CCOc1ccc(NC(=O)CSc2nc3ccsc3c(=O)n2CCC(C)C)cc1 | 15.9% |
| Cc1ccc(NC(=O)C2CCN(S(=O)(=O)c3ccc4c(c3)CCCC(=O)N4)CC2)cc1N(C)C | 5.92% |
| COc1ccc(OC)c(NC(=O)C2CCN(S(=O)(=O)c3ccc4c(c3)CC(C)N4C(C)=O)CC2)c1 (configuration not stated) | -14.7% |
| COc1ccc(OC)c(NC(=O)C(C)n2c(=O)c(-c3ccccc3NC(C)=O)nc3ccccc32)c1 (configuration not stated) | 6.09% |
| O=C(CC1Sc2ccccc2NC1=O)Nc1cccc(C(F)(F)F)c1 (configuration not stated) | -2.87% |
| COc1ccc(-c2nc(CSCC(=O)NCCC(C)C)c(C)o2)cc1OC | 22.4% |
| COc1ccc(N2CC(NC(=O)COc3cccc(C)c3)CC2=O)cc1OC (configuration not stated) | 9.53% |
| COc1ccccc1NS(=O)(=O)c1cn(C)c(C)n1 | 13.2% |
| Cc1ccc(C)c(N2CCN(C(=O)Cn3nc(C)c4sc5ccccc5c4c3=O)CC2)c1 | 17.6% |
| COc1ccccc1N(CC(=O)Nc1ccccc1C(F)(F)F)S(=O)(=O)c1ccc(C)cc1 | 14.1% |
| CCC(O)c1nc2ccccc2n1Cc1cc(C)ccc1C (configuration not stated) | 16.3% |
| O=C(NCc1cccnc1)c1ccc(-c2ccccc2[N+](=O)[O-])o1 | active: 85.3% |
| Cc1oc2ccc(O)c(CN3CCCCCC3)c2c1C(=O)Nc1cccc(C(F)(F)F)c1 | 16.1% |
| CCOC(=O)c1c(NC(C)=O)c2c3c(sc2n1Cc1cc(C)ccc1C)CCCC3 | 9.01% |
| CCOc1ccccc1NC(=O)Cn1c(=O)n(Cc2ccco2)c(=O)c2sc3ccccc3c21 | -16.9% |
| CCCC(=O)Nc1ccc2oc(-c3ccc(O)c(Br)c3)nc2c1 | 9.97% |
| O=C(C1CC1)N1CCc2cc(Br)cc(S(=O)(=O)NCCN3CCOCC3)c21 | active: 39.9% |
| O=C(c1ccc2c(c1)N(Cc1ccc(Cl)cc1)C(=O)c1ccccc1S2(=O)=O)N1CCOCC1 | -6.16% |

| Structure (SMILES) | inhibition |
| --- | --- |
| CCCCC(CC)CNC(=O)CCCCCn1c(=O)[nH]c2ccsc2c1=O (configuration not stated) | -2.59% |
| CCc1ccc(-n2c(=O)c3ccccc3n(Cc3ccccc3C#N)c2=O)cc1 | 5.47% |
| CC(C)c1ccc(NC(=O)c2ccc(=O)n(Cc3ccccc3)c2)cc1 | 5.07% |
| COc1cccc(C2C(C(N)=O)=C(C)Nc3ncnn32)c1 (configuration not stated) | -7.78% |
| O=C(CSc1nc2c(oc3ccccc32)c(=O)n1-c1ccccc1)Nc1ccc(F)c(Cl)c1 | -5.24% |
| COc1ccc(OC)c(NC(=O)C2=C(C)C(=O)OC23CCN(C(C)C)CC3)c1 | -3.43% |
| Fc1ccc(N2CCN(c3ncnc4onc(-c5ccc(Cl)cc5)c34)CC2)cc1 | -0.616% |
| COc1cc(Nc2nc(-c3ccc(OC)c(OC)c3)nc3ccccc23)cc(OC)c1 | 4.46% |
| Cc1cccn2c(=O)c(C(=O)N3CCN(c4ccccc4)CC3)cnc12 | -0.48% |
| COc1ccccc1Nc1c2c(nc3ccc(NC(=O)c4ccc(N(C)C)cc4)cc13)CCCC2 | 18.9% |
| CSc1nc(N2CCN(Cc3ccc4c(c3)OCO4)CC2)c2ccccc2n1 | active: 37.9% |
| Cc1ccc(-n2c(=O)c3oc4ccccc4c3n(Cc3cccc(F)c3)c2=O)cc1C | -9.33% |
| Cc1ccc(C(=O)c2c(N)c(C(=O)Nc3cccc(C(F)(F)F)c3)c3ccccn23)cc1 | -2.05% |
| Cc1nc2nc(NCc3ccc(Br)cc3)[nH]n2c(=O)c1Cc1ccccc1 | 0.0908% |
| CCCCOc1ccc(C(=O)Nc2cccc(-c3nc4ccccc4o3)c2C)cc1 | -1.9% |
| CN(C)c1ccc(CNC(=O)c2ccc3nc(Cc4ccccc4)oc3c2)cc1 | 16.2% |
| O=C(O)CCn1ccc2cc(S(=O)(=O)N3CCCCCC3)ccc21 | 0.791% |
| CCN(CC(=O)Nc1ccc2c(c1)OCCO2)C(=O)COc1cc(C)ccc1Cl | active: 33.2% |
| Cc1cc(C)c(NC(=O)C(=O)NCCc2csc(-c3ccc(F)cc3)n2)c(C)c1 | -1.99% |
| Cc1cccc(NC(=O)Cn2c(=O)n(Cc3ccccc3)c(=O)c3oc4ccccc4c32)c1C | -5.74% |
| CC(C)c1ccc(NC(=O)c2ccc(CN3CC(=O)N4CCCCC4C3=O)cc2)cc1 (configuration not stated) | 2.19% |
| COc1ccccc1C(=O)Nc1ccc(C(=O)OCc2cc(=O)n3c4c(sc3n2)CCCC4)cc1 | 14.5% |
| CCOc1ccc(C2C(C(N)=O)=C(C)Nc3nc(SCc4ccccc4F)nn32)cc1 (configuration not stated) | 5.3% |
| Cc1ccc(CNC(=O)c2c(Nc3c(C)cccc3C)sc(C(=O)c3ccccc3)c2N)cc1 | 17.6% |
| COc1ccccc1NC(=O)c1cnn(-c2ccccc2)c1-n1cccc1 | 9.06% |

| Structure (SMILES) | inhibition |
| --- | --- |
| CC(C)c1cccc(OCCN2CCCC2)c1 | active: 70.5% |
| Cc1ccc(CNC(=O)c2c(Nc3ccccc3C)sc(C(=O)c3ccc(F)cc3)c2N)cc1 | -21% |
| COc1ccc(CC(=O)NCC(c2cccs2)S(=O)(=O)c2ccc(F)cc2)cc1 (configuration not stated) | 4.43% |
| COc1cccc(-c2nn(C)c3sc(C(=O)NCc4ccc(OC)cc4OC)cc23)c1 | 0.816% |
| Cc1ccc(C(=O)N(Cc2ccco2)c2ccccn2)cc1 | -5.15% |
| O=C(CN1CCN(Cc2ccccc2F)C1=O)NCc1ccccc1 | -9.8% |
| COc1cc(NC(=O)c2nn(C)c3c2COc2ccccc2-3)cc(OC)c1OC | -14.3% |
| CCOc1ccccc1NC(=O)C1=C(C)Nc2ncnn2C1c1ccco1 (configuration not stated) | -22.7% |
| CCc1cnc2c(c1SC(C(C)=O)C(=O)N(C)C)c(=O)n(C)c(=O)n2C (configuration not stated) | 12.5% |
| COc1ccc(CCNC(=O)c2ccc(Cn3c(SCc4ccccc4)nc4cccnc43)cc2)cc1 | 12.5% |
| O=C(CCn1c(=O)c2ccccc2n(CC(=O)Nc2ccc(F)cc2)c1=O)NCCc1ccccc1 | -5.58% |
| COCCCNC(=O)c1ccc(Cn2c(=O)c3ccccc3n(Cc3ccc(Cl)cc3)c2=O)cc1 | -8.86% |
| Cc1cccc(-n2c(SCC(=O)Nc3ccc(C)c(C)c3)nc3n[nH]c(C)c3c2=N)c1 | 15.6% |
| CCOC(=O)c1ccccc1NC(=O)c1c(C)oc2ncnc(N3CCOCC3)c12 | -3.68% |
| COc1cccc(-n2c(=O)c3c(C)c(C)sc3n(Cc3ccccc3C#N)c2=O)c1 | 2.03% |
| CCOc1ccc(CNC(=O)c2cc3ccccn3n2)cc1 | 6.01% |
| COc1ccc(-c2nc3sc(CCNC(=O)C(=O)Nc4ccccc4C#N)c(C)n3n2)cc1 | 8.68% |
| CCN(CC)CCCNc1oc(-c2ccc(OC)cc2)nc1C#N | -0.55% |
| CC(C)n1c(=O)c2oc3ccccc3c2n(CC(=O)Nc2ccccc2Cl)c1=O | 18.8% |
| CSCCC(NC(=O)c1ccco1)C(=O)N1CCCC(C(F)(F)F)C1 (configuration not stated) | active: 31.5% |
| Cc1c(Cl)cccc1NC(=O)Cn1c(=O)n(Cc2ccco2)c(=O)c2oc3ccccc3c21 | 7.24% |
| COC(=O)c1c(Oc2ccc(Br)cc2)nnc(-c2ccccc2)c1-c1ccccc1 | -7.15% |
| CCc1nc2nc(C)cc(Nc3ccc(F)c(Cl)c3)n2n1 | 24.7% |
| COc1ccccc1N1CCN(CCOc2c(OC)cccc2OC)CC1 | active: 97.5% |
| O=C1CC(c2ccc(Br)cc2)c2c(ccc3ccccc23)N1 (configuration not stated) | 1.8% |

| Structure (SMILES) | inhibition |
| --- | --- |
| COc1cc(OC)c2c(C)c(CC(=O)N3CCCCC3)c(=O)oc2c1 | 9.86% |
| Cc1cccc(C(=O)Nc2ccccc2OCc2cc(=O)n3cc(C)ccc3n2)c1 | 13.9% |
| CC(=O)N1CCCc2cc(S(=O)(=O)N3CCCC(C(=O)Nc4ccc(C)c(F)c4)C3)ccc21 (configuration not stated) | 4.42% |
| O=C(COc1ccc(Br)cc1)Nc1ccc(C(=O)OC2CCCCC2)cc1 | -9.33% |
| CCc1ccc(S(=O)(=O)c2cn(Cc3ccc(OC)cc3)c3cc(OC)c(OC)cc3c2=O)cc1 | 6.93% |
| CCOc1ccc(NC(=O)Cn2c(=O)n(-c3ccccc3)c(=O)c3c4c(sc32)CCCC4)cc1 | -15.2% |
| CCc1nnc2c3ccccc3nc(N3CCN(c4cc(Cl)ccc4C)CC3)n12 | 2.67% |
| COc1ccc(NC(=O)CCc2c(C)nc3cc(-c4cccc(F)c4)nn3c2C)cc1Cl | -2.94% |
| CCOC(=O)c1c(C)[nH]c(C)c1S(=O)(=O)N(C)CC(=O)Nc1ccc(C)c(F)c1 | -0.976% |
| CC(=O)Nc1ccc2nc(SCCOc3ccccc3Cl)sc2c1 | -1.41% |
| CCCCN(c1ccccc1)c1ncnc2c1cnn2-c1cccc(C)c1 | -2.89% |
| COC(=O)c1cc2sccc2n1Cc1nc(-c2ccc(C)cc2)oc1C | -8.72% |
| Cc1cc(C)c(NC(=O)C2CCCN(C(=O)c3cnn(-c4ccccc4)c3-n3cccc3)C2)c(C)c1 (configuration not stated) | -7.38% |
| CCc1ccccc1NC(=O)c1ccc2c(c1)c(C)c(C)n2Cc1ccccc1 | 10.6% |
| CN(C(=O)CSc1nc2ccccc2n1CC(=O)N(C)C1CCCCC1)c1ccc(F)cc1 | -14.3% |
| CCOc1ccc(CNC(=O)c2ccc3c(c2)N(Cc2ccccc2)CCS3)cc1 | -13.6% |
| COc1ccccc1N1CCN(C(=O)COc2ccccc2C#N)CC1 | -11.6% |
| Cn1c(=O)[nH]c(=O)c2c1ncn2CCN1CCOCC1 | active: 38.1% |
| CCOc1ccc(S(=O)(=O)N2CCC(n3c(C)nc4cccnc43)CC2)cc1 | -3.2% |
| O=C(Cn1ncc2c(Cl)cccc21)NCc1cccc(F)c1 | 9.5% |
| COC(=O)c1ccc2c(c1)N(Cc1cc(C)ccc1C)C(=O)c1ccccc1S2(=O)=O | 9.11% |
| CC(=O)N1CCc2c(sc(NC(=O)CSc3ccc(F)cc3)c2-c2nc3ccccc3s2)C1 | 15% |
